# Laboratory results as given in the supplement of paper PMC8728848.
# Some of the results follow.
# B1: PX9937F-bfa-516-16-516 (Bacteroides fragilis) (protein)
# chain: LDIDPTSSIADSNYWKTEAQFSTFNVGLHALLRECSFNFFLLGEPRADIYGDVPFGGEATQGMERLPFNTINKENTGISNFAGMYKVINQINLMIAKTKETTVLSEAGKNYYLGEAYGMRAYLYFHLLRSWGDVILYLDYTNGASLDLSNLSKAASPAEEVMKQIKEDITASEKGFGSDYSFKYGRYYWSMAATQMLKGEVYLWSGRQMGGGTADYTTAKTALQSIVSNANVSLQDDFSKVFAYNNKDNSEIIFSIRNAKDEYNMWDDRFRQNLVPQQAYMTSTYCNKEGVSFKDLPEGQLNGLIRLQIRYDLYNKAFRDGDTRKDASMTAVYQKQQDGTVKYIAPFCNKYQGVLLDGASQRSFLNDYPIYRYADCLLLLAEAKALLGEDPTAEINQVRERAYGKEFFEANKATLAYPNDKGDFYTDNKYMSGDEDPLEAILKERMREFMFEGKRWYDLRLLGADYVTKRTSAVATRLLWPINESVLTDNPALKQTPGYQN
# Experiments:
# Assay in all cases: glycan array binding signal (z-score within array); higher = stronger binding
# Conditions in all cases: glycan notation: IUPAC condensed, linker removed
# [1] = biological target: Gal(b1-4)GlcNAc(b1-3)Gal(b1-4)GlcNAc(b1-3)Gal(b1-4)GlcNAc(b1-2)Man(a1-3)[Gal(b1-4)GlcNAc(b1-3)Gal(b1-4)GlcNAc(b1-3)Gal(b1-4)GlcNAc(b1-2)Man(a1-6)]Man(b1-4)GlcNAc(b1-4)GlcNAc
# How it was run: (§1)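 From the Consortium for Functional Glycomics database, 3228 arrays were curated, keeping only those whose protein sequence was available. Binding is given as a within-array Z-score averaged across arrays sharing a protein sequence and across linkers. Negative Z-scores can be read as non-binding.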
# [2] = biological target: Gal(b1-4)GlcNAc(b1-3)Gal(b1-4)GlcNAc(b1-3)Gal(b1-4)GlcNAc(b1-2)Man(a1-3)[Gal(b1-4)GlcNAc(b1-3)Gal(b1-4)GlcNAc(b1-3)Gal(b1-4)GlcNAc(b1-2)Man(a1-6)]Man(b1-4)GlcNAc(b1-4)[Fuc(a1-6)]GlcNAc
# How it was run: as §1
# [3] = biological target: Gal(b1-4)GlcNAc(b1-3)Gal(b1-4)GlcNAc(b1-3)Gal(b1-4)GlcNAc(b1-2)[Gal(b1-4)GlcNAc(b1-3)Gal(b1-4)GlcNAc(b1-3)Gal(b1-4)GlcNAc(b1-6)]Man(a1-6)[Gal(b1-4)GlcNAc(b1-3)Gal(b1-4)GlcNAc(b1-3)Gal(b1-4)GlcNAc(b1-2)Man(a1-3)]Man(b1-4)GlcNAc(b1-4)[Fuc(a1-6)]GlcNAc
# How it was run: as §1
# [4] = biological target: Gal(b1-4)GlcNAc(b1-3)Gal(b1-4)GlcNAc(b1-3)Gal(b1-4)GlcNAc(b1-3)Gal(b1-4)GlcNAc(b1-2)Man(a1-3)[Gal(b1-4)GlcNAc(b1-3)Gal(b1-4)GlcNAc(b1-3)Gal(b1-4)GlcNAc(b1-3)Gal(b1-4)GlcNAc(b1-2)Man(a1-6)]Man(b1-4)GlcNAc(b1-4)GlcNAc
# How it was run: as §1
# [5] = biological target: Gal(b1-4)GlcNAc(b1-3)Gal(b1-4)GlcNAc(b1-3)Gal(b1-4)GlcNAc(b1-3)Gal(b1-4)GlcNAc(b1-2)Man(a1-3)[Gal(b1-4)GlcNAc(b1-3)Gal(b1-4)GlcNAc(b1-3)Gal(b1-4)GlcNAc(b1-3)Gal(b1-4)GlcNAc(b1-2)Man(a1-6)]Man(b1-4)GlcNAc(b1-4)[Fuc(a1-6)]GlcNAc
# How it was run: as §1
# [6] = biological target: Gal(b1-4)GlcNAc(b1-3)Gal(b1-4)GlcNAc(b1-3)Gal(b1-4)GlcNAc(b1-3)Gal(b1-4)GlcNAc(b1-2)[Gal(b1-4)GlcNAc(b1-3)Gal(b1-4)GlcNAc(b1-3)Gal(b1-4)GlcNAc(b1-3)Gal(b1-4)GlcNAc(b1-6)]Man(a1-6)[Gal(b1-4)GlcNAc(b1-3)Gal(b1-4)GlcNAc(b1-3)Gal(b1-4)GlcNAc(b1-3)Gal(b1-4)GlcNAc(b1-2)Man(a1-3)]Man(b1-4)GlcNAc(b1-4)[Fuc(a1-6)]GlcNAc
# How it was run: as §1
# [7] = biological target: Gal(b1-4)GlcNAc(b1-3)Gal(b1-4)GlcNAc(b1-3)Gal(b1-4)GlcNAc(b1-3)Gal(b1-4)GlcNAc(b1-3)Gal(b1-4)GlcNAc(b1-2)Man(a1-3)[Gal(b1-4)GlcNAc(b1-3)Gal(b1-4)GlcNAc(b1-3)Gal(b1-4)GlcNAc(b1-3)Gal(b1-4)GlcNAc(b1-3)Gal(b1-4)GlcNAc(b1-2)Man(a1-6)]Man(b1-4)GlcNAc(b1-4)GlcNAc
# How it was run: as §1
# [8] = biological target: Gal(b1-4)GlcNAc(b1-3)Gal(b1-4)GlcNAc(b1-3)Gal(b1-4)GlcNAc(b1-3)Gal(b1-4)GlcNAc(b1-3)Gal(b1-4)GlcNAc(b1-2)Man(a1-3)[Gal(b1-4)GlcNAc(b1-3)Gal(b1-4)GlcNAc(b1-3)Gal(b1-4)GlcNAc(b1-3)Gal(b1-4)GlcNAc(b1-3)Gal(b1-4)GlcNAc(b1-2)Man(a1-6)]Man(b1-4)GlcNAc(b1-4)[Fuc(a1-6)]GlcNAc
# How it was run: as §1
# [9] = biological target: Gal(b1-4)GlcNAc(b1-3)Gal(b1-4)GlcNAc(b1-3)Gal(b1-4)GlcNAc(b1-3)Gal(b1-4)GlcNAc(b1-3)Gal(b1-4)GlcNAc(b1-2)[Gal(b1-4)GlcNAc(b1-3)Gal(b1-4)GlcNAc(b1-3)Gal(b1-4)GlcNAc(b1-3)Gal(b1-4)GlcNAc(b1-3)Gal(b1-4)GlcNAc(b1-6)]Man(a1-6)[Gal(b1-4)GlcNAc(b1-3)Gal(b1-4)GlcNAc(b1-3)Gal(b1-4)GlcNAc(b1-3)Gal(b1-4)GlcNAc(b1-3)Gal(b1-4)GlcNAc(b1-2)Man(a1-3)]Man(b1-4)GlcNAc(b1-4)[Fuc(a1-6)]GlcNAc
# How it was run: as §1
# [10] = biological target: Gal(b1-4)GlcNAc(b1-3)Gal(b1-4)GlcNAc(b1-3)Gal(b1-4)GlcNAc(b1-3)Gal(b1-4)GlcNAc(b1-3)Gal(b1-4)GlcNAc(b1-3)Gal(b1-4)GlcNAc(b1-2)Man(a1-3)[Gal(b1-4)GlcNAc(b1-3)Gal(b1-4)GlcNAc(b1-3)Gal(b1-4)GlcNAc(b1-3)Gal(b1-4)GlcNAc(b1-3)Gal(b1-4)GlcNAc(b1-3)Gal(b1-4)GlcNAc(b1-2)Man(a1-6)]Man(b1-4)GlcNAc(b1-4)GlcNAc
# How it was run: as §1
# [11] = biological target: Gal(b1-4)GlcNAc(b1-3)Gal(b1-4)GlcNAc(b1-3)GalNAc
# How it was run: as §1
# [12] = biological target: Gal(b1-4)GlcNAc(b1-3)Gal(b1-4)GlcNAc(b1-3)[Gal(b1-4)GlcNAc(b1-3)Gal(b1-4)GlcNAc(b1-6)]GalNAc
# How it was run: as §1
# [13] = biological target: Gal(b1-4)GlcNAc(b1-3)Gal(b1-4)GlcNAc(b1-6)[Gal(b1-3)]GalNAc
# How it was run: as §1
# [14] = biological target: Gal(b1-4)GlcNAc(b1-3)Gal(b1-4)[Fuc(a1-3)]GlcNAc(b1-3)Gal(b1-4)[Fuc(a1-3)]GlcNAc
# How it was run: as §1
# [15] = biological target: Gal(b1-4)GlcNAc(b1-3)GalNAc
# How it was run: as §1
# [16] = biological target: Gal(b1-4)GlcNAc(b1-3)[Fuc(a1-3)GlcNAc(b1-6)]Gal(b1-4)Glc
# How it was run: as §1
# [17] = biological target: Gal(b1-4)GlcNAc(b1-3)[Gal(b1-4)GlcNAc(b1-6)]Gal(b1-4)GlcNAc
# How it was run: as §1
# [18] = biological target: Gal(b1-4)GlcNAc(b1-3)[GlcNAc(b1-6)]Gal(b1-4)GlcNAc
# How it was run: as §1
# [19] = biological target: Gal(b1-4)GlcNAc(b1-6)Gal(b1-4)GlcNAc
# How it was run: as §1
binder,measurement,setting,value
B1,glycan array binding signal (z-score),[1],0.12
same,glycan array binding signal (z-score),[2],-0.286
same,glycan array binding signal (z-score),[3],4.38
same,glycan array binding signal (z-score),[4],-0.062
same,glycan array binding signal (z-score),[5],0.562
same,glycan array binding signal (z-score),[6],3.95
same,glycan array binding signal (z-score),[7],0.069
same,glycan array binding signal (z-score),[8],-0.02
same,glycan array binding signal (z-score),[9],20.8
same,glycan array binding signal (z-score),[10],0.37
same,glycan array binding signal (z-score),[11],0.056
same,glycan array binding signal (z-score),[12],-0.271
same,glycan array binding signal (z-score),[13],-0.048
same,glycan array binding signal (z-score),[14],-0.12
same,glycan array binding signal (z-score),[15],-0.253
same,glycan array binding signal (z-score),[16],0.349
same,glycan array binding signal (z-score),[17],-0.235
same,glycan array binding signal (z-score),[18],-0.248
same,glycan array binding signal (z-score),[19],-0.355
